In the supplement of paper PMC3334620:
Over roughly 33,000 sequences, “E-score (-0.5 to 0.5)” has its median near -0.012; the highest 2% begin near 0.27. The list shows a part of the results.

The sequences below were run against T1, Vhr1 (UniProt P40522) (assay: PBM E-score (8-mer binding enrichment) (E-score (-0.5 to 0.5)); higher = stronger / more preferred TF binding; most listed sequences are background and not binding sites). Conditions: protein concentration: 200 nM; construct: GST-full length.
T1 sequence: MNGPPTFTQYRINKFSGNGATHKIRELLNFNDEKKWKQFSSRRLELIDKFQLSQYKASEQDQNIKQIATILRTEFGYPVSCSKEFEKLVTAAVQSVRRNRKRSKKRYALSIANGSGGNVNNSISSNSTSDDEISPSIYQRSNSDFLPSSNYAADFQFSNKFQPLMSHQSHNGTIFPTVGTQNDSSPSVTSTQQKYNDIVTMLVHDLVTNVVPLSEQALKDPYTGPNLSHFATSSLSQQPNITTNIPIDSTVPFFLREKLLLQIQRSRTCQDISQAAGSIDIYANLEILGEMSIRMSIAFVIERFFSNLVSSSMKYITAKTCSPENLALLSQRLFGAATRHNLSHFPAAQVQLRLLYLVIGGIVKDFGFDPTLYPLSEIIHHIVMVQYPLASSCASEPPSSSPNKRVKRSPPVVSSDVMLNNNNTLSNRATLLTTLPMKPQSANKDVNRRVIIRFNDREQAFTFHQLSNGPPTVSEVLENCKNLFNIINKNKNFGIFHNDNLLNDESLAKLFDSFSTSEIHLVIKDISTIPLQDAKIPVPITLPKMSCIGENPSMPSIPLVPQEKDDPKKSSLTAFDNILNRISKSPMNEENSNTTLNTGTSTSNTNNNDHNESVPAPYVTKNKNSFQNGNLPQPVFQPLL
In short: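 GST-tagged yeast TFs (full-length or DNA-binding domain) were made by PURExpress in vitro transcription/translation and applied at about 100-200 nM to universal all-10-mer Agilent arrays. The arrays were made double-stranded by primer extension, on fresh or once-stripped slides. Bound protein was detected with fluorescent anti-GST, and scans were normalised with masliner. Each ungapped eight-base word, pooled with its reverse complement, received an E-score (modified Wilcoxon-Mann-Whitney statistic) from the Universal PBM Analysis Suite.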

Sequence	PBM E-score
CAAGCGGC	0.127
ACTTGACA	-0.168
CTCTTTAC	-0.116
CGACGTTA	0.0703
ACTACGGC	0.0515
GAGAGACC	-0.00022
ACTCGAAA	-0.0152
ACGTCCGC	-0.105
TACATCTA	0.0469
ACAACCGT	-0.184
ACATGGCC	-0.0801
ACAACCTA	0.00737
TTGACCAA	0.00092
CGAAGGAG	-0.0105
ACGAGTCG	0.322
CGTAACAA	-0.0651
ATAAACTA	0.0187
ATTCTGTC	-0.0706
ACATAGCT	-0.216
GTCTCTGA	-0.0341
CGCTTTAA	-0.199
AATGTCAC	0.0925

Sequence	PBM E-score
CTCGTCCC	-0.0539
CTCCAGCC	-0.0218
ATTATTTG	0.0696
ACCTTTCG	-0.225
CTTCCCAA	-0.199
GATATAAC	0.0122
GTGGGGGA	-0.279
ATCACCCG	0.25
CGATTGGC	-0.0714
AAGTAAGC	-0.34
CCGAGGTC	0.0282
TCTCCTCA	-0.11
GGAGTCTA	0.0135
ATCCTTAA	-0.179
GCCTAAGA	-0.204
GAGTCCGA	0.308
GTGACTAA	0.428
ACCCACGA	0.215
GAGGCTGA	-0.00874
ATATCTCA	0.0878
GGCGAGTA	0.0781
TACGAGTA	0.113

Sequence	PBM E-score
AATGGATG	-0.00152
ACAGGTAA	-0.191
ACACAACA	0.0209
AATGTTTC	-0.186
TCCCGAAA	-0.109
AGTGGTAT	0.00981
AATCGCCA	-0.0266
TCAAGGAA	-0.0565
AAGAGTGC	-0.076
ACAAGTAT	0.0268
AATTTGGT	-0.0733
ATGCTCCG	-0.19
ACCACCCA	0.192
AGACTTAC	-0.161
GTTCTGGA	-0.0347
CCGTGTCC	0.123
ACGTATCA	0.117
CCAGGTAA	-0.0317
AACTAATA	0.218
CAGCGCCG	-0.044
CCCCTTCG	-0.155
GCACATAA	0.0338

Sequence	PBM E-score
CCAGGTAC	0.0626
AACCTGCC	-0.121
CGGAGAAA	-0.0281
CAGCAGAC	-0.0587
TATGTGAA	-0.0413
GCCTAACC	0.0418
CAAAGTCC	-0.182
TAGAGTAA	-0.082
AGATCAAG	0.0944
AAGGTTCG	-0.272
GTTGGCAA	-0.0225
GAAGTAGC	-0.125
AACCACAT	0.245
GATGGGGA	0.0051
GTGGCCAA	0.0173
GGCCTTTA	-0.298
ACCTGCGT	0.0255
CGCATACG	-0.0252
CCTTAAGG	-0.15
ATCAGTCC	-0.225
